The whole screen tested about 410,000 compounds, of which about 530 (0.13%) were called active. Inconclusive means that the source gave no clear call. Such entries were picked first, then a sample of the others. Calls come from the whole dose curve; as a rule, active = well fitted inhibition curve with a large enough effect; inconclusive = small, poorly fitted or top-dose-only effect, or another doubt; inactive = no such curve, though single readings can be large or run the other way. A potency beside an inconclusive call is a rough fit, not a confirmed value.
Experiment: qHTS of GLP-1 Receptor Inverse Agonists: Cytotox Screen
Conditions: HEK293 cAMP-luciferase reporter cells, luminescence, 24 h; activity change, negative = inhibition: at 38.3 µM (top of the series) unless noted
How it was run: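 Step one: seed cells (200 cells/uL, DMEM with 10% Nu serum, 1% pen-strep). Step two: 12-hour incubation at 37 deg C. Step three: pin 23 nL compound, incubate 24 hr. Step four: add luciferase reagent, read luminescence 12 min later.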
% is set by controls: 0 for no effect and ±100 for the full control effect; potency is the fitted concentration of half-maximal effect.

| Structure (SMILES) | Potency | activity change, negative = inhibition |
| --- | --- | --- |
| O=C(NCCN1C(=O)S/C(=C\c2ccccc2F)C1=O)C1CC(=O)N(Cc2ccccc2)C1 (stereo not drawn) | inconclusive: 10 µM [inhibitor, single point] |  |
| S=C(NCCCN1CCOCC1)NN=C1c2ccccc2-c2ccccc21 | inconclusive: 3.16 µM [inhibitor, full curve, poor fit] |  |
| COc1ccc(C(=O)c2c(C)oc3cc([N+](=O)[O-])c(O)c([N+](=O)[O-])c23)cc1 | inconclusive: 12.6 µM [inhibitor, single point] |  |
| CCOc1ccc(OCC)c(NC(=O)CN(c2ccc(OC)cc2)S(=O)(=O)c2c(C)noc2C)c1 | inactive |  |
| COC1=C(N)C(=O)c2nc(-c3nc(C(=O)O)c(C)c(-c4ccc(OC)c(OC)c4O)c3N)ccc2C1=O | inconclusive: 1.26 µM [inhibitor, full curve, poor fit] |  |
| Cc1ccc(Cn2ccc(NC(=O)c3cc(-c4ccc(Br)cc4)on3)n2)cc1 | inactive |  |
| Cc1cc(C)c[n+](C(C)C(=O)c2ccc(Cl)cc2)c1 (stereo not drawn) | inactive |  |
| O=C(Nc1ccc2ccccc2c1)C(c1ccccc1)C1CCCC1 (stereo not drawn) | inactive |  |
| Cn1c2ccccc2c2cc(C(=O)NNC(=O)CCl)sc21 | inconclusive: 12.6 µM [inhibitor, single point] |  |
| CCCOc1ccc(NC(=O)CC2C(=O)N(CC)C(=S)N2CCCN2CCN(Cc3ccccc3)CC2)cc1 (stereo not drawn) | inconclusive: 22.4 µM [inhibitor, single point] |  |
| CCOC(=O)c1sc(NC(=O)CNCc2ccccn2)c(C(=O)OCC)c1C | inconclusive: 28.2 µM [inhibitor, single point] |  |
| O=C(/C=C/c1cccs1)Nc1cccc(NC(=O)/C=C/c2cccs2)n1 | inconclusive: 14.1 µM [inhibitor, single point] |  |
| O=C(Nc1nc(-c2cc(F)ccc2F)cs1)c1ccccn1 | inconclusive: 11.2 µM [inhibitor, partial curve, poor fit] |  |
| COc1ccccc1/C=C/CN1CCCC(CO)(Cc2cccc(Cl)c2)C1 (stereo not drawn) | inconclusive: 28.2 µM [inhibitor, single point] |  |
| CCc1cccc(CC)c1NC(=S)NCCc1c(C)[nH]c2ccccc12 | inconclusive: 28.2 µM [inhibitor, single point] |  |
| Cn1c(=O)c2c(nc(CN3CCc4ccccc4C3)n2Cc2cccc(Cl)c2)n(C)c1=O | inactive |  |
| CC(C)(C)NC(=O)CSc1nc2ccc(Nc3nc(N4CCOCC4)nc(N4CCOCC4)n3)cc2s1 | inconclusive: 17.8 µM [inhibitor, partial curve, poor fit] |  |
| N#Cc1c(NC(=O)c2cc(C3CC3)on2)sc2c1CCC2 | inconclusive: 3.98 µM [inhibitor, partial curve, poor fit] |  |
| NC(=S)n1[nH]c(-c2ccc([N+](=O)[O-])cc2)c(N=Nc2ccccc2[N+](=O)[O-])c1=O | inactive |  |
| CCOCCCNC(=S)Nc1ccc2nc(N3CCCC3)cc(C)c2c1 | inconclusive: 28.2 µM [inhibitor, single point] |  |
| CN(Cc1ccccc1)C(=O)c1cccc(NC(=O)Cc2ccc([N+](=O)[O-])cc2)c1 | inconclusive: 3.16 µM [inhibitor, full curve, poor fit] |  |
| c1ccc(COc2ncnc3c2ncn3CCCNC2CCN(Cc3ccccc3)CC2)cc1 | inconclusive: 11.2 µM [inhibitor, single point] |  |

| Structure (SMILES) | Potency | activity change, negative = inhibition |
| --- | --- | --- |
| Cc1ccc(-c2csc(NC(=S)NC(=O)c3ccco3)n2)cc1 | inconclusive: 10 µM [inhibitor, partial curve, poor fit] |  |
| Cc1cc(NC(=O)CSc2nc(C(C)C)nc3ccccc23)no1 | inconclusive: 20 µM [inhibitor, single point] |  |
| CCCOc1ccc(-c2nonc2NC(=O)c2ccco2)cc1OCCC | inactive |  |
| CSCCC(NS(=O)(=O)c1cccc(C(F)(F)F)c1)C(=O)N(C)CCOc1ccc(Cl)cc1 (stereo not drawn) | inconclusive: 28.2 µM [inhibitor, single point] |  |
| OC(CN1CCC(Cc2ccccc2)CC1)c1ccccc1 (stereo not drawn) | inconclusive: 15.8 µM [inhibitor, single point] |  |
| O=C1C=C(c2ccc(Cl)cc2)C(=O)N1Nc1ccccc1 | inconclusive: 6.31 µM [inhibitor, partial curve, poor fit] |  |
| Cc1nn(-c2ccccc2)c(C)c1C(=O)NNC(=O)C(F)(F)F | inactive |  |
| Cc1cc(Br)cc(C)c1NC(=O)c1sc2ncn(Cc3cccc(F)c3)c(=O)c2c1C | inactive |  |
| Cc1cccc(/C=N/NC(=O)c2cc(Br)ccc2O)n1 |  | inconclusive: -37.1% [inhibitor] |
| CCNC(=O)c1ccc(C)c(-n2c(C)nc3cccnc32)c1 | inactive |  |
| CSc1ccc(C2=CC(=O)C[C@H](c3ccc4c(c3)OCO4)C2)cc1 | inactive |  |
| C=CCNC(=S)NNC(=O)CCC(O)CCCCC (stereo not drawn) | inconclusive: 10 µM [inhibitor, partial curve, poor fit] |  |
| COc1cccc(-c2csc(-c3c(N)c(C(=O)c4ccc5c(c4)OCO5)n4ccccc34)n2)c1 | inactive |  |
| COc1ccc(Nc2c(-c3ccc(C)cc3)nc3cnccn23)cc1 | inactive |  |
| CCC1=NN(C(=O)c2ccc(Br)cc2)C(O)(c2ccc(C)cc2)C1 (stereo not drawn) | inconclusive: 17.8 µM [inhibitor, partial curve, poor fit] |  |
| O=C(Cn1ncc2c3ccccc3n(Cc3ccccc3F)c2c1=O)N1CCCCCC1 | inactive |  |
| CCn1ccnc1CN1CCc2c([nH]c3ccccc23)C1CC(C)C (stereo not drawn) | inconclusive: 28.2 µM [inhibitor, single point] |  |
| CC(CCc1ccc(O)cc1)N1CCC(Oc2ccc(C(=O)N3CCCC3)cc2)CC1 (stereo not drawn) | inconclusive: 12.6 µM [inhibitor, single point] |  |
| COc1ccc(/C=C(\NC(=O)c2ccccc2)C(=O)N/N=C/c2ccncc2)cc1 | inconclusive: 3.16 µM [inhibitor, full curve, poor fit] |  |
| N#CC1C(=O)c2ccccc2C1c1ccccc1 (stereo not drawn) | inconclusive: 10 µM [inhibitor, single point] |  |
| CN(C)S(=O)(=O)N1CCC(n2nccc2NC(=O)CCc2ccccc2)CC1 | inconclusive: 22.4 µM [inhibitor, single point] |  |

— PubChem BioAssay AID624418 (National Center for Advancing Translational Sciences (NCATS), 2012)
